According to PubChem BioAssay AID1466 (National Center for Advancing Translational Sciences (NCATS), 2008):
The whole screen tested about 200,000 compounds, of which about 10 (0.005%) were called active. Inconclusive results, whose numbers are uncertain, are shown with a selection of clear calls. Calls follow the shape of the dose curve; as a rule, active = well fitted inhibition curve with a large enough effect; inconclusive = small, poorly fitted or top-dose-only effect, or effect the other way, or another doubt; inactive = no such curve, though single readings can be large or run the other way. A potency beside an inconclusive call is a rough fit, not a confirmed value.

Molecular target: Lysosomal alpha-glucosidase (Homo sapiens) (UniProt P10253)
Experiment: qHTS Assay for Inhibitors of Human alpha-Glucosidase as a Potential Chaperone Treatment of Pompe Disease;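 as to activity change, negative = inhibition: plate controls were uninhibited enzyme wells for no effect and no-enzyme background for full effect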
Conditions: purified human GAA, 4-MU-alpha-glucoside fluorescence; activity change, negative = inhibition: at 76.9 µM (top of the series) unless noted
Method in brief: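 AC50 values come from Hill fits of compound titrations (up to 77 uM) against 4 nM human enzyme. Substrate 4-methylumbelliferyl-alpha-D-pyranoside at 400 uM, pH 5.0 citrate buffer, 20 min room temperature; fluorescence Ex 365/Em 440 after alkaline stop.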
Potency is read from the fitted curve at half-maximal effect; tags tell the direction and shape of the fitted curve.

Potency, inconclusive:
COc1ccc(OCCC(=O)Nc2cc(C)on2)cc1 56.2 µM [inhibitor, single point], Cc1cc(C)cc(-n2nnc(C(=O)NCc3ccc(Cl)cc3)c2N)c1 3.16 µM [inhibitor, partial curve], O=S(=O)(c1ccc(-c2ccccc2)cc1)N1CCCC1 56.2 µM [inhibitor, partial curve], CC(C)(C)OC(=O)N[C@@H](Cc1c[nH]c2ccccc12)c1nnc(SCC(N)=O)o1 20 µM [inhibitor, partial curve], C=CCN=C(NC#N)SCc1ccccc1 5.01 µM [inhibitor, single point], CN(C)c1ccccc1C(=O)c1ccccc1N(C)C 0.178 µM [inhibitor, full curve, poor fit], COc1ccc(C(=O)Nc2ccc(S(=O)(=O)N3CCCCC3)cc2)cc1OC 56.2 µM [inhibitor, single point], C=CCNc1nc(-c2ccc(O)c(C(N)=O)c2)cs1 56.2 µM [inhibitor, single point], O=C(Nc1ccccc1)c1ccc(NC2CCCCC2)c(S(=O)(=O)N2CCOCC2)c1 50.1 µM [inhibitor, single point], Cc1ccc(-c2nn(CCC(=O)NCC3CCCO3)c(=O)c3ccccc23)cc1 (centres undefined) 56.2 µM [inhibitor, single point], Cc1ccc(S(=O)(=O)N(C)Cc2ccc(C(=O)NN=C(CC(C)C)CC(C)C)cc2)cc1 14.1 µM [inhibitor, partial curve], N#Cc1nc(-c2cccs2)oc1NCCCN1CCOCC1 35.5 µM [activator, partial curve], CCOC(=O)c1cc2c(=O)n3ccccc3nc2n(CCOC)c1=NC(=O)c1ccncc1 31.6 µM [activator, partial curve], COC(=O)c1cc(Br)c(=O)n(Cc2ccco2)c1 50.1 µM [inhibitor, partial curve, poor fit], N#Cc1c(-c2ccc(F)cc2)cc(-c2cccnc2)nc1N 10 µM [activator, full curve], CC1(c2ccccc2)NC(=O)N(CCOc2ccccc2)C1=O (centres undefined) 11.2 µM [inhibitor, full curve], S=C(Nc1cccc(Br)c1)N1CCn2cccc2C1c1cccnc1 (centres undefined) 56.2 µM [inhibitor, single point], Cc1ccc(-c2nnc(-c3ccc(Br)cc3)o2)o1 0.794 µM [inhibitor, full curve, poor fit], CC(=O)c1sc(NC(=O)c2ccc(C)c(C)c2)nc1C 22.4 µM [inhibitor, partial curve, poor fit], COc1cc(/C=C/C(=O)Nc2ccc3[nH]c(=O)[nH]c3c2)cc(OC)c1OC 0.891 µM [activator, full curve], CNc1ccc(Br)cc(C(=O)/C=C/c2cc(OC)ccc2OC)c1=O 50.1 µM [inhibitor, single point], S=C(NCc1ccccc1)NCc1ccc(CNC(=S)NCc2ccccc2)cc1 12.6 µM [inhibitor, partial curve], O=C(N/N=C(\Cc1ncc[nH]1)c1ccccc1)c1ccncc1 50.1 µM [inhibitor, single point], CCOc1ccc(N2CC(C(=O)NCCN3C(=O)S/C(=C\c4ccc(OC)cc4)C3=O)CC2=O)cc1 (centres undefined) 14.1 µM [inhibitor, partial curve], COc1ccc(CCn2c(N)c(C(=O)NCc3ccco3)c3nc4ccccc4nc32)cc1 31.6 µM [activator, partial curve], CCS(=O)(=O)N1Cc2ccccc2CC1C(=O)OCC(=O)Nc1ccc(C)cc1 (centres undefined) 10 µM [inhibitor, partial curve, poor fit], N#CC1=C(N)Oc2cc3c(cc2C1c1ccc(Cl)cc1)OCO3 (centres undefined) 44.7 µM [inhibitor, single point], Cc1ccsc1/C=C(\C(=O)c1ccc(OC(C)C)cc1)c1nc2ccccc2o1 50.1 µM [inhibitor, single point], CCc1ccc(-c2nc(CCl)cs2)cc1 28.2 µM [inhibitor, partial curve], COC(=O)[C@@H]1CC[C@H](C)[C@@H](c2ccc(C)cc2)N1C(=O)c1ccc(/C=N/OC[C@@H](O)[C@H]2O[C@@H]3OC(C)(C)O[C@@H]3[C@H]2O)cc1 28.2 µM [inhibitor, partial curve], CCn1c(/C=C/c2ccccc2)nc2ccccc21 0.501 µM [activator, full curve, poor fit], Cc1cc(C)c2c(n1)nn1c(NCCOCCO)cc(C)nc21 35.5 µM [activator, partial curve], O=C(/C=C/Nc1ccccc1OC(F)(F)F)C(F)(F)F 11.2 µM [inhibitor, partial curve], O=C(COC(=O)C1CCN(S(=O)(=O)c2ccc3c(c2)OCCO3)CC1)Nc1ccc(C(F)(F)F)cc1 25.1 µM [inhibitor, partial curve], Cc1ccccc1OCCSc1nc(N(C)C)nc(N(C)C)n1 11.2 µM [inhibitor, single point], O=C(NC(=S)N1CCc2ccccc21)c1ccc(Br)o1 11.2 µM [activator, single point], COC(=O)C1=CN(CC2CCCO2)C=C(C(=O)OC)C1c1ccccc1C(F)(F)F (centres undefined) 25.1 µM [activator, partial curve], O=[N+]([O-])c1cccc(S(=O)(=O)c2cccc([N+](=O)[O-])c2)c1 0.891 µM [inhibitor, full curve, poor fit], COCCn1c(=O)[nH]c2cc(C(=O)NCCN3CCN(c4ccccc4F)CC3)ccc2c1=O 39.8 µM [activator, partial curve]

Potency, inactive:
O=C(Nc1ccc(N2CCOCC2)c(Cl)c1)c1cc2ccccc2o1, OCC1(CO)COC(c2ccccc2)=N1

Activity change, negative = inhibition, inconclusive:
O=C(Nc1cc(Cl)ccc1N1CCOCC1)c1ccc2c(c1)OCCO2 9.85% [activator], CCN1CCN(C(c2cccc(OC)c2OC)c2nnnn2Cc2ccco2)CC1 (centres undefined) 14.4% [activator], S=C(c1ccc(-c2ccccc2Cl)o1)N1CCCCC1 -15.8% [inhibitor], Cc1onc(-c2ccccc2Cl)c1C(=O)Nc1nnc(-c2ccc(Br)cc2)s1 20% [activator], Cc1ccc2[nH]c3c(c2c1)CN(C(=O)CN1CCN(c2cccc(C)c2C)CC1)CC3 -15.5% [inhibitor], O=[N+]([O-])c1ccc2[nH]c3c(c2c1)CCCC3O (centres undefined) 24.6% [activator], Fc1ccc(C(c2nnnn2CCc2ccccc2)N2CCCc3ccccc32)cc1 (centres undefined) 19.8% [activator], COc1ccc(N(CC(=O)Nc2ccc3c(c2)OCO3)S(=O)(=O)c2ccccc2)cc1 16.6% [activator], CN(C)/C=C(/C(=O)c1ccccc1)S(=O)(=O)c1ccc(Cl)cc1 15.4% [activator], Cc1cc(C)cc(NC(=O)COC(=O)[C@@H](NC(=O)c2ccco2)C(C)C)c1 -18.9% [inhibitor], COc1ccc(C(=O)N/C(=C\c2cccc([N+](=O)[O-])c2)C(=O)Nc2cccc(C(=O)O)c2)cc1 16.4% [activator], COc1ccc(NC(=O)N2CCN(C(=O)C(Cc3ccc(F)cc3)NC(C)=O)CC2)cc1 (centres undefined) 19.8% [activator], Cc1cc(C)cc(N(CC(=O)NC2CCCC2)C(=O)C2(C)CC(=O)N=C3C=CC=CN32)c1 (centres undefined) 23.4% [activator], COC(=O)c1sccc1-n1cccc1C(=O)C(=O)N1CCOCC1 15.1% [activator], COCc1cc(CN2CCN(Cc3ccsc3)C(CCO)C2)ccc1OC (centres undefined) 15% [activator], CC1CCCN(C(=O)c2ccc3c(=O)n(Cc4ccc5c(c4)OCO5)c(=S)[nH]c3c2)C1 (centres undefined) -15.1% [inhibitor], CCN1C(=O)/C(=c2\s/c(=C3\Sc4ccccc4N3C)c(=O)n2C)N(C)C1=S 17.7% [activator], CCNC(=S)N1CCC(c2nc3ccccc3s2)CC1 -17.2% [inhibitor], CN(C)c1ccc(/C=N/NC(=O)c2cccc(N3CCCC3=O)c2)cc1 18.6% [activator], CCOc1cc(C)cc2oc(=O)cc(-c3ccccc3)c12 -15.3% [inhibitor], COc1ccc(CSCC(=O)N/N=C/c2ccccc2O)cc1 15.9% [activator], O=C(O)CCC(=O)Nc1ccccc1C(=O)N1CCN(c2ccc(Cl)cc2)CC1 20.1% [activator], CC1(C)CC(=O)C2=C(C1)OC(N)=C(C#N)C21C(=O)N2CCCc3cccc1c32 (centres undefined) -15.3% [inhibitor]
